# Read counts are not given, so values of variants with three or more changes are uncertain.
# B1: CPEB3 Ribozyme (parent)
# chain: UAACAGGGGGCCACAGCAGAAGCGUUCACGUCGCAGCCCCUGUCAGAUUCUGGUGAAUCUGCGAAUUCUGCUGUAUAUCUC
# Variants of: B1
# Assay: self-cleavage, relative activity (ratio to wild type); higher = more cleavage; in vitro, sequencing
# Procedure, shortened: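 For each CPEB3 ribozyme variant, relative activity is its cleaved/total read fraction divided by the unmutated ribozyme's. Barcoded error-prone PCR libraries were transcribed by T7 RNA polymerase (5 hours, 37°C) and held in DNase I for 15 min before an EDTA stop, with cleavage occurring throughout. Template-switching reverse transcription and Illumina sequencing were used to read the RNAs. A 5-read minimum applied, and results are the mean of three batches.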
row,Variant,self-cleavage
1,UAACAGGGGGCCACAGCAGAAGCGUUCACGUCGCAGCCCCUGUCCGAUUCUUGUGAAUCUGCGAAUUCUGCUGUAUAUCGC [A45C G52U U80G],0.85
2,UAACAGGGGGCCACAGCAGAAGCGUUCACGUCGCAGCCCCUGUUAGAUUCUGGUGAACCUGCGAAUUCUGCUGUAUACCUC [C44U U58C U78C],0.09
3,UAACAGGGGGCCACAGCAGAAGCGUUCACGUCGCAGCCCCUGUUAGGUUCUGGUGAAUCUGCGAACUCUGCUGUAUAUCUC [C44U A47G U66C],0.25
4,UAACAGGGGGCCACAGCAGAAGCGUUCACGUCGCAGCCCCUGCCAGAUUCUGGUGAAUCUGCGAAUUCUGCCGAAUAUCUC [U43C U72C U74A],0.29
5,UAACAGGGGGCCACAGCAGAAGCGUUCACGUCGCAGCCCCUGUAAGAUUCUGGUGAAUCUGCGAAUUCUGCUGUUUAUCAC [C44A A75U U80A],0.79
6,UAACAGGGGGCCACAGCAGAAGCGUUCACGUCGCAGCCCCUGUCCGAUCCUGGUGAAUCUGCGAAUUCAGCUGUAUAUCUC [A45C U49C U69A],0.1
7,UAACAGGGGGCCACAGCAGAAGCGUUCACGUCGCAGCCCCUGUUAGAUUCUGUUGAAUCUGCGAAUCCUGCUGUAUAUCUC [C44U G53U U67C],0.11
8,UAACAGGGGGCCACAGCAGAAGCGUUCACGUCGCAGCCCCUGUUAGAUACUGGUGAAUCUGCGAAUUCUGCUGUAUAUCCC [C44U U49A U80C],0.09
9,UAACAGGGGGCCACAGCAGAAGCGUUCACGUCGCAGCCCCUGGCAGAUUCUGGUGAGUCUGCGAAUUCUGCUGUAUAUCCC [U43G A57G U80C],0.14
10,UAACAGGGGGCCACAGCAGAAGCGUUCACGUCGCAGCCCCUGGCGGACUCUGGUGAAUCUGCGAAUUCUGCUGUAUAUCUC [U43G A45G U48C],0.24
11,UAACAGGGGGCCACAGCAGAAGCGUUCACGUCGCAGCCCCUGUUAGAUUCUGGUGGAUCUGUGAAUACUGCUGUAUAUCCC [C44U A56G C62U U67A U80C],0.09
12,UAACAGGGGGCCACAGCAGAAGCGUUCACGUCGCAGCCCCUGUGAGGUUCUGGUGAAUCUGCGAUUUCUGCUGUAUAUCUC [C44G A47G A65U],0.09
13,UAACAGGGGGCCACAGCAGAAGCGUUCACGUCGCAGCCCCUGUCCGAUUCUGGUGAAUCUGCGAAUUCUGCCGUAUAUCAC [A45C U72C U80A],0.6
14,UAACAGGGGGCCACAGCAGAAGCGUUCACGUCGCAGCCCCUGUCCGAUUCUGGCGAAUCCGCGAAUUCUGCUGUAUAUCUC [A45C U54C U60C],0.2
15,UAACAGGGGGCCACAGCAGAAGCGUUCACGUCGCAGCCCCUGGCAGAUUCUGGUGUAUCUGCGGAUUCUGCUGUAUAUCUC [U43G A56U A64G],0.16
16,UAACAGGGGGCCACAGCAGAAGCGUUCACGUCGCAGCCCCUGGCUGAUCCGGGUGAAUCUGCGAAUUCUGCUGUAUAUCCC [U43G A45U U49C U51G U80C],0.17
17,UAACAGGGGGCCACAGCAGAAGCGUUCACGUCGCAGCCCCUGUCCGAUUCUGGUGAAUCUGCGUAUUCUGCUGCAUAUCUC [A45C A64U U74C],0.24

row,Variant,self-cleavage
1,UAACAGGGGGCCACAGCAGAAGCGUUCACGUCGCAGCCCCUGCCAGAUUCUGGUGAAUCUGCGAAUUCAGCUGUAUAUCAC [U43C U69A U80A],0.24
2,UAACAGGGGGCCACAGCAGAAGCGUUCACGUCGCAGCCCCUGUCCGAUUCUGGUGAAACUGCUAAUUCCGCUGUAUAUCUC [A45C U58A G63U U69C],0.08
3,UAACAGGGGGCCACAGCAGAAGCGUUCACGUCGCAGCCCCUGUCCGAUUCUGGAGAAUCUGCGAAUUCUGCUGUACAUCUC [A45C U54A U76C],0.23
4,UAACAGGGGGCCACAGCAGAAGCGUUCACGUCGCAGCCCCUGUCCGACUCUGGUGAAUCUGCGAACCCUGCUGUAUAUCUC [A45C U48C U66C U67C],0.17
5,UAACAGGGGGCCACAGCAGAAGCGUUCACGUCGCAGCCCCUGUUAGAUUCUGGUGGGUCUGCGAAUUCUGCUGUAUAUCUC [C44U A56G A57G],0.16
6,UAACAGGGGGCCACAGCAGAAGCGUUCACGUCGCAGCCCCUGUCCGUUUCUGGCGAAUCUGCGAAUUCUGCUGUAUAUCUC [A45C A47U U54C],0.11
7,UAACAGGGGGCCACAGCAGAAGCGUUCACGUCGCAGCCCCUGUUGGAUUCAGGUGAAUCUGCGAAUUCUGCUGUAUAUCUC [C44U A45G U51A],0.61
8,UAACAGGGGGCCACAGCAGAAGCGUUCACGUCGCAGCCCCUGUCCGACUCUCGAGAAUCUGCGAAUUCUGCUGUAUAACUC [A45C U48C G52C U54A U78A],0.4
9,UAACAGGGGGCCACAGCAGAAGCGUUCACGUCGCAGCCCCUGUUAGAUUCUGGUGAAUCCGCGAAAUCUGCUGUAUAUCUC [C44U U60C U66A],0.18
10,UAACAGGGGGCCACAGCAGAAGCGUUCACGUCGCAGCCCCUGUCCGAUUCUGGUGAAUCUGCGGAUUCUGCUGUAUGUCUC [A45C A64G A77G],0.09
11,UAACAGGGGGCCACAGCAGAAGCGUUCACGUCGCAGCCCCUGCCAGAUUCUGGUGAAUCUGCGAAUUCUGCUGCAUAUCAC [U43C U74C U80A],1.15
12,UAACAGGGGGCCACAGCAGAAGCGUUCACGUCGCAGCCCCUGUGUGAUUCUGGUGAAUCUGCGAAUUCUGCUGUAUAUCAC [C44G A45U U80A],0.28
13,UAACAGGGGGCCACAGCAGAAGCGUUCACGUCGCAGCCCCUGGCAGAUUCCGGUGAAUCUGCGAAUUCUGCUGUAUACCUC [U43G U51C U78C],0
14,UAACAGGGGGCCACAGCAGAAGCGUUCACGUCGCAGCCCCUGUAAGAUUCUGGUGAAUCCGCGAUUUCUGCUGUAUAUCUC [C44A U60C A65U],0.31
15,UAACAGGGGGCCACAGCAGAAGCGUUCACGUCGCAGCCCCUGGCAGAUUCUGGUGAAUCUGCGAAUUCUGCUGUAUAUUCC [U43G C79U U80C],0.14
16,UAACAGGGGGCCACAGCAGAAGCGUUCACGUCGCAGCCCCUGUCCGAUUCUGGUGAAUCUGCGAAUCCUGCCGUAUAUCUC [A45C U67C U72C],0.21
17,UAACAGGGGGCCACAGCAGAAGCGUUCACGUCGCAGCCCCUGGCAGAAUCUGGUGAAUCUGCGAAUUCAGCUGUAUAUCUC [U43G U48A U69A],0.22

# From the RNAGym collection of RNA variant scans (doi:10.1093/nar/gkz1192)
